Assay results as given in the supplement of paper PMC12632987.
In all, about 4,500 sequences were measured (“median log2 fold change of GCK-ALFA target abundance (FLAG IP / Myc IP barcode read proportion)”: median about 0.078, lowest 2% from about -0.6 on). This is one part of the list.

B1: GBRAP_9_7143 (protein)
chain: MEEMVKKIKEVMDDMFEEVREVVPEEVKPLVDELRKKALAEFDKVVADPNKTKEEIAEEAKKLIDDFAKEVSAKVSPEIAKIVEAIALTAKLEIEEILEE
B2: GBRAP_160_4221 (protein)
chain: SETIERIVKIFRENFEEAVELIEGESLEEQKVILDVAVGEVILEVSSDENVTDEMEEVVEKKAEEAAEELLKLKNASREEKLKLIEEKAKELKKELEKLA
B3: GBRAP_159_3962 (protein)
chain: MEERLEALREELRALGASEAAIERAVEALELSLEGEDKDSVAAHVLHLYFTLGASTEQILALLGFLDPDTARYVANVLADYAAAQGDAAAAAAFRAFAAA
B4: GBRAP_52_6163 (protein)
chain: SRERAEEYADRILAAVRAGDEEELERLLREVAETLSEEEIELMLEIIAERVPELTPEEAERVVDAAIRLEDLGIEAGHNEELLSYQLARVAAAAYDRLQA
B5: GBRAP_125_3077 (protein)
chain: PTEEELADLATVLRALGYSDADVEEAVAIAAASSLKQTLVAIMLAEGAEEAADLIEKLTEAEAAEVLRRVAAALAANPGLSKEEVIALIRREAEEALAAA
B6: GBRAP_52_6276 (protein)
chain: MEEEAKKLAEEFIEVALNGSEEEIREFAKELVENYSQELIAEVLKIVVEMSKELNAEEIERLLEAFLILELELDEAGKDTLPAEDAAAELAKLHEEKLKE
B7: GBRAP_184_5136 (protein)
chain: KTLHKFIEAKTVEEAIEKAKKAFEEAKAAGEKLTLFIDAEGLSVEEIEKLIKEVVKLAKEAGLEDAQIILVVEADEEEADKIIKIADEYGVKVVVALEEE
B8: GBRAP_52_6016 (protein)
chain: MRERLEAFVDEVLALVRAGREEEARARIAELVASLDEEELELLIEVIARRAAEAAPEDQEAVWRLAEMLAEEMERAGVDEALADELEARVAAALYDAEQR
B9: GBRAP_14_3867 (protein)
chain: KEKALEVVNKAIEDMREELIKMFPDKKELIDKVAEEIKKYAEEVFKKKENIEEAMEEIREYALKKVEEAFKDLPPEDRAAALTIVDNEFLEADLEIEELS
B10: GBRAP_125_3072 (protein)
chain: ARAALLEDLAALARALGLSEDEVEELVALAAASSLRQALIALLLAEGAEEAADAVAELTEEQAAAVLRELRAELEANPDLTKEEVVARLLELARKARAEA
B11: GBRAP_160_4658 (protein)
chain: SPEIEELKKRIEEIFEEAKEMVKGETHEQRVAIARVAVGDVVLELSESPLVSEEAEDEVAKIGDALVAELEANPDFTDEEVEALIDKALEEVLKVLEKYS
B12: GBRAP_128_3393 (protein)
chain: SQEELLKEALKLIDEITKADLETARELTEKLMELFGKLNLEEQEKVVDYFESKLPELTAEKLDVVADVLREKRPELDPEGAALVNGLEVAALNEAEEKEE
B13: GBRAP_122_2947 (protein)
chain: SETREELEELVERMVEALDAGDDEELEALAEELVERFREISPEEAREAVERLIERVKDDEEKLERALKALLKAFYKNEPLTPAQEAAADVVAEEFDRLSE
B14: GBRAP_160_4526 (protein)
chain: SEYLEEVEKELRETAERAIELVKGESAEQRAVIVSMEFGSFAMELAEDERASDEEVDIVIDEEDKIVATILANPDLTDEEIAALIRESVERIIERLRKLY
B15: GBRAP_160_4844 (protein)
chain: KEKLEKVKKELEEARKFVLSLVDEVSVEDLAKFARAELGSTALYLLEEGYINEEAFDAILEEADELEEELLENKDASVEEIKKIIEEHVEKAIKEVEKLL
B16: GBRAP_160_4630 (protein)
chain: SEKLEKAKKAIEEARDFVLSLVPEVNVEQAAHALDTEFGSVILELREEGLISEETEDRMMEIVDKARKYMLENPDLTEEEIKELIEKTAEEIKKELEKEY
B17: GBRAP_83_6911 (protein)
chain: KEKVAVATTGDHIEEAVDAVIDLTKEEGYEVSLEILTTKEHREKVLEAVRRLAEEGIETEVLVLIKGATEEEAEELKEELEKIAKEYGVNIKIEVIILEE
B18: GBRAP_128_3295 (protein)
chain: SAAALRAAYRARLRALLGLTPEELRAATLALIKEAAAQGLEAVELFAEALEELAPEFTVEQLEAIAEALREAMKTVDPETAAVLADAESVALLEAEEKEE
B19: GBRAP_11_2866 (protein)
chain: NKEKLKEIAELLEKLIEVLERLLEEGVDNEELREEALKLAKEILELVKKYSDEADVKLAEYALELLEKAEEDPANAEQYVQEALAFARVLLGNVLLRIDE
B20: GBRAP_78_6599 (protein)
chain: EVEELVDEALELLGEAARLARALPPEVRDEVLDHLVDAASDLVESEEEEGTLEHLEEALKHVEAALELVRASDSPAAPELAAVLERAAKLLKEAIKLEKE
B21: GBRAP_52_6060 (protein)
chain: SKEEIEKLAKEIYEAIKAGDKEKALELLKEAIKKLSVEEITELLKLTAKLVAKGNDEQHELFVDIMDEFEDLMIEAGISEEEALIIVGDALATLAKEVAK
B22: GBRAP_11_2717 (protein)
chain: KKEKLEELAKRAEALAKEVEKLIKEGPKEEKLKALAKEVAALAKEAKAAGVDPAIVKTLEIAAEDLKEAIADPENVVEHLQNAAAALRVAAGQLLLEREE
B23: GBRAP_160_4121 (protein)
chain: NEKELKIAKDNAEDFEETLKEIEDLSNEEAGTLAIVTLGEAILDASELDGKFEEEEKFAEELEEELRKTAKEDPEKLKEVSKEKLEKARKYFEEKAKKLE
B24: GBRAP_160_4555 (protein)
chain: SKEQEELIKSVEEAKKFVLEVVEEESNEEAKTVAIGEFGSVLMEAFLSGKFSDELEDKLGELLDKLEEELEKAKNGSKEEVKKIITKYFDEAIELIKKSK
B25: GBRAP_184_5306 (protein)
chain: MVRHVTIEAKTAEEAIKQIEAAAAEAKAAGAKLELTLLLDNVDVEGFKKIAELLKELKEEGIIKSALVEITNDLSEEEIDEYIKIADEAGVTLVIALPEE
B26: GBRAP_80_6760 (protein)
chain: ARARLEAALAELIALDPEVGTRLRAVLERALAAGVDPELAARTVEALVELAKLDPEKARELAERLIAELEEALAAGDVAGAEAALVDAESDALVEVEELE
B27: GBRAP_35_5503 (protein)
chain: SSAATEVEMLVATIEDLVLAVPDLDPETAASIARQLIRSARELAADLADDAEGLERLRDALEALLAAIRKHYGDDPLAQEVAAELEALIAELDARLAAAR
B28: GBRAP_14_3881 (protein)
chain: KEEIVKTVEEKMEEMIENIKKLLPDLPEEVWEKIEELTEEIIEKVKEEDLNLEELDELLDEMVEEIDEHAAGLDPETRAALVALLGVETNEILLKVDEVE
B29: GBRAP_35_5585 (protein)
chain: EIEEIILDTVKDWAEATIEAIKEEDIETVVKLLKAFIRTVRLAIKDLKNNLEALKKIAEEIKKVIEALKKYRSDNKEIQELVKELEELLKEAEELAKKNE

What follows are binders tested against GABARAP, O95166 (assay: median log2 fold change of GCK-ALFA target abundance (FLAG IP / Myc IP barcode read proportion) (log2 ratio); each designed protein is fused to an ALFA-tag nanobody in HEK293 cells to bring the named protein to FLAG-tagged glucokinase (GCK); Myc marks an untargeted standard; higher = target protein stabilised (more abundant)). Settings: target protein: 3xFLAG-MCP-GCK-ALFA reporter; HEK293 landing pad (RPLP).
GABARAP, O95166, sequence (O95166 whole entry, the tested form may be a part): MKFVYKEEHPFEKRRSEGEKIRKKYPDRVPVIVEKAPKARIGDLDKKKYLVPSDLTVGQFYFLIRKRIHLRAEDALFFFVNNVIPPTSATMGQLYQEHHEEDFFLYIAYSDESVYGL
Outline: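 The readout is target abundance, the per-binder median log2 ratio of FLAG to Myc barcode read proportions. It came from HEK293 landing-pad cells carrying a recombined ALFA-nanobody-fused binder library, induced with 2 μg mL^−1 doxycycline and transfected with a plasmid for a FLAG-tagged target and a Myc-tagged standard. After 48 h, lysates were immunoprecipitated with anti-FLAG and anti-Myc, and circular RNA barcodes were reverse transcribed, amplified and sequenced. Each barcode needed a proportion of at least 10^−7 in both replicates and each binder at least 3 barcodes per replicate, a pseudocount of 10^−6 was added, and the replicates were pooled.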

Binder	median log2 fold change
B1	0.254
B2	-0.86
B3	0.154
B4	-0.285
B5	0.135
B6	0.0527
B7	0.225
B8	-0.044
B9	0.184
B10	0.146
B11	-0.00472
B12	0.135
B13	0.0267
B14	-0.317
B15	-0.0674
B16	-0.081
B17	-0.0177
B18	0.219
B19	-0.0773
B20	0.039
B21	-0.416
B22	0.249
B23	0.308
B24	-0.131
B25	-0.0661
B26	0.126
B27	0.117
B28	-0.00202
B29	0.189
